# B1: VII-A/IX: chimeric Factor VII/Factor IX construct (protein)
# chain: ANAFLEELRPGSLERECKEEQCSFEEAREIFKDAERTKLFWISYSDGDQCESNPCLNGGSCKDDINSYECWCPFGFEGKNCELDVTCNIKNGRCEQFCKNSADNKVVCSCTEGYRLAENQKSCEPAVPFPCGRVSVSQTSKLTRAETVFPDVDYVNSTEAETILDNITQSTQSFNDFTR[about 250 residues not listed]
# Tested on: BC2 antibody
# Test: BiaCore binding of Factor IX/Factor VII constructs to immobilized BC2
# Conditions: 200 nM construct, 25 mM MOPS pH 7.4, 0.15 M NaCl, 5 mM CaCl2
# Method: A library of chimeric constructs composed of sequences of Factor IX spliced into the framework of the homologous protein Factor VII was constructed and used to map the epitope for the Factor IX BC2 mAb. See Cheung et al., Thromb. Res. 80, 419-427 (1995). Binding was measured using a BiaCore 2000 surface plasmon resonance device. The BC2 antibody was coupled directly to the chip using the NHS/EDC reaction. Binding was measured by 2 min of contact time at 20 uL/min with 200 nM of each of the given constructs in 25 mM MOPS, pH 7.4, 0.15 M NaCl, 5 mM CaCl2. Dissociation was monitored for 3 min using the same buffer with no protein. No binding was detected to the wild type construct in the presence of 50 mM EDTA.
molecule,measurement,value
B1,Degree of Binding to BC2,No Binding
